Test results published in PubChem BioAssay AID2675 (National Center for Advancing Translational Sciences (NCATS), 2010).
The campaign covered roughly 280,000 compounds. About 100 (0.036%) were called active. This list was built around the results that the source calls inconclusive (neither active nor inactive); the mix of calls is not that of the screen. Calls follow the shape of the dose curve; as a rule, active = well fitted inhibition curve with a large enough effect in the signal ratio, with a control signal flat (not every such curve was filed as active); inconclusive = small, poorly fitted or top-dose-only effect, or effect the other way, or a change in a side signal; inactive = no such curve, though single readings can be large or run the other way; the % refers to the signal ratio. Where the call is inconclusive, the potency comes from a doubtful curve fit. A note “side channel” means that the fit belongs to a control or component signal, not to the main read-out.

What follows are compounds tested against Muscleblind-like protein 1 (Homo sapiens) (UniProt Q9NR56) (assay: qHTS Assay for Inhibitors of MBNL1-poly(CUG) RNA binding). Conditions: TR-FRET MBNL1-His/biotin-(CUG)12 binding, 665/545 ratio; activity change, negative = inhibition: at 57.5 µM (top of the series).
Chain of UniProt Q9NR56 (Q9NR56 whole entry, looked up): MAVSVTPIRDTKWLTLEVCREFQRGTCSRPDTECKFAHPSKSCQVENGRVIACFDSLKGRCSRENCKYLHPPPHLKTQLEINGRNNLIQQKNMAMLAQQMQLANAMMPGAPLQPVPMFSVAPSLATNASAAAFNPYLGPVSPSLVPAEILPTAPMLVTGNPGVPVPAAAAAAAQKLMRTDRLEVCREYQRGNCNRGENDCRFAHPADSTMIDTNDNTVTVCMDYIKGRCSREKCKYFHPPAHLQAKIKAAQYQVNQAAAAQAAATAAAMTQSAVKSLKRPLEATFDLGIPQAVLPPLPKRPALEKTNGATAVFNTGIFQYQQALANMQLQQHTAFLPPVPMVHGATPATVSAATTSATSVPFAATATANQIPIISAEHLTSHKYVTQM
Method in brief: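 Compounds (final 92 nM to 58 uM) are added to His-tagged MBNL1 and biotin-(CUG)12, then terbium anti-His antibody and streptavidin-XL665 (5 nM final). After 60 min at room temperature, the 665/545 nm ratio is read.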
% is scaled to controls: 0 for no effect and ±100 for the full control effect; potency is read from the fitted curve at half-maximal effect; tags tell the direction and shape of the fitted curve or compound fluorescence and quenching.

| Structure (SMILES) | Potency | activity change, negative = inhibition |
| --- | --- | --- |
| N#Cc1c(C#N)c(O)c2ccccc2c1O | inconclusive: 3.55 µM [quencher, side channel, full curve] |  |
| Cc1cc(-c2cc(-c3ccc(Cl)cc3)nc(N)c2C#N)co1 | inconclusive: 17.8 µM [quencher, single point] |  |
| Cc1cccc(-c2cc3nc(C)cc(C)n3n2)c1 | inactive |  |
| CN(C(=O)c1cc2c(=O)n3ccccc3nc2n1C)C1CCCCC1 | inconclusive: 20 µM [quencher, side channel, partial curve] |  |
| O=c1oc2ccc(Br)cc2cc1-c1nc2ccccc2o1 | inconclusive: 3.55 µM [quencher, side channel, full curve, poor fit] |  |
| Clc1ccccc1Sc1cnc2ccccc2n1 | inactive |  |
| CCCN1CCN(C(=S)Nc2ccc([N+](=O)[O-])cc2)CC1 | inconclusive: 12.6 µM [quencher, side channel, partial curve] |  |
| CCOc1ccc(C(=O)NC2CCN(C(=O)Nc3ccccc3OC)CC2)cc1 | inconclusive: 31.6 µM [inhibitor, single point] |  |
| CC1CCN(c2ccc([N+](=O)[O-])cc2C(=O)NCC2CCCO2)CC1 (stereo not drawn) | inconclusive: 8.91 µM [quencher, side channel, partial curve] |  |
| CCC(=O)Nc1cccc(NC(=O)c2cccc([N+](=O)[O-])c2)c1 | inconclusive: 11.2 µM [quencher, side channel, partial curve] |  |
| Nc1nnn(CC(=O)N/N=C/C=C/c2ccccc2)n1 | inconclusive: 15.8 µM [quencher, side channel, partial curve] |  |
| N#CC1=C(N)C(C#N)(C#N)[C@H](c2ccoc2)[C@H]2CN(Cc3ccccc3)CC=C12 | inconclusive: 25.1 µM [quencher, single point] |  |
| COc1cccc2c1Oc1cc([N+](=O)[O-])cc(N(C)C(C)=O)c1C=C2 | inconclusive: 17.8 µM [quencher, side channel, partial curve] |  |
| O=C(NCCNc1ccc([N+](=O)[O-])cc1C(F)(F)F)c1ccc(F)cc1 | inconclusive: 39.8 µM [quencher, single point] |  |
| COc1ccccc1N1CCN(C(=O)CSc2nc3ccccc3o2)CC1 | inactive |  |
| CN(C)CCCOC(=O)c1sc2ccccc2c1Cl | inconclusive: 17.8 µM [quencher, side channel, partial curve, poor fit] |  |
| CN(C)c1ccc(C2N(c3ccc(F)cc3)C(=O)C3CCCN32)cc1 (stereo not drawn) | inconclusive: 20 µM [quencher, side channel, single point] |  |
| COc1cccc(C(=O)/C=C/Nc2ccc(S(=O)(=O)Nc3onc(C)c3C)cc2)c1 |  | inconclusive: 13.7% [phenotype inactive] |
| O=C(NCCN1C(=O)S/C(=C\c2ccccc2)C1=O)C1CCN(S(=O)(=O)c2cccs2)CC1 | inconclusive: 44.7 µM [quencher, side channel, single point] |  |

| Structure (SMILES) | Potency | activity change, negative = inhibition |
| --- | --- | --- |
| CC(=O)Nc1ccc2c(CN3C(=O)NC(C)(c4ccc(C)cc4)C3=O)cc(=O)oc2c1 (stereo not drawn) | inconclusive: 44.7 µM [quencher, side channel, partial curve, poor fit] |  |
| COc1cccc(C(=O)N/N=c2/oc3ccccc3cc2C(N)=O)c1 | inconclusive: 25.1 µM [quencher, side channel, partial curve] |  |
| O=C(N/N=C/c1cccnc1)c1ccccc1OCc1ccc(Cl)cc1 | inconclusive: 12.6 µM [quencher, side channel, partial curve] |  |
| O=C1Nc2ccccc2C1=Nc1cccc(Cl)c1 | inconclusive: 12.6 µM [quencher, side channel, partial curve] |  |
| Cc1oc(-c2ccc3ccccc3c2)nc1CN(C)C(C)c1ccncn1 (stereo not drawn) | inconclusive: 3.16 µM [fluorescent, side channel, single point] |  |
| CCCc1[nH][nH]c(=O)c1C(c1ccc(Cl)cc1)C(C#N)C#N (stereo not drawn) | inactive |  |
| O=C(O)c1ccc(S(=O)(=O)c2ccc3c(c2)C(=O)N(CC2CCCO2)C3=O)cc1 (stereo not drawn) | inconclusive: 28.2 µM [quencher, side channel, partial curve] |  |
| Cc1ccc(N2CCN(CC(O)COc3ccccc3)CC2)cc1 (stereo not drawn) | inconclusive: 35.5 µM [fluorescent, side channel, single point] |  |
| COc1cc([N+](=O)[O-])cc2cc(C(=O)NC(C)(C)C)c(=O)oc12 | inconclusive: 2.82 µM [quencher, side channel, full curve] |  |
| CCOC(=O)N1CCN(S(=O)(=O)c2cc(Cl)ccc2Cl)CC1 | inconclusive: 35.5 µM [quencher, side channel, single point] |  |
| CN(C)CCN1C(=O)C(=O)/C(=C(/O)c2ccc(S(=O)(=O)N3CCOCC3)cc2)C1c1ccc(Br)cc1 (stereo not drawn) | inconclusive: 15.8 µM [quencher, partial curve] |  |
| CCc1nnc(N2C(=O)c3ccc(Oc4ccc([N+](=O)[O-])cc4)cc3C2=O)s1 | inconclusive: 3.16 µM [quencher, side channel, single point] |  |
| Cc1cc(NC(=O)c2ccccc2Cl)n(C(C)(C)C)n1 | inactive |  |
| CCOc1ccccc1-n1c(N)c(C(N)=O)sc1=S | inconclusive: 25.1 µM [quencher, side channel, partial curve] |  |
| COC(=O)c1cnn(-c2ccc(F)cc2F)c1/C=N/NC(N)=S | inconclusive: 22.4 µM [quencher, side channel, single point] |  |
| NC(=O)NOCc1c(Cl)cccc1Cl | inconclusive: 7.08 µM [fluorescent, side channel, single point] |  |
| Cc1ccc2nc3ccc(N4CCCCCCC4)nn3c(=O)c2c1 | inconclusive: 8.91 µM [quencher, side channel, full curve, poor fit] |  |
| CCOc1ccc(NC2=C(Cl)C(=O)N(Cc3ccccc3)C2=O)cc1 | inactive |  |
| CCCCN1C(=O)c2ccc(C(=O)Nc3cccnc3)cc2C1=O | inconclusive: 15.8 µM [quencher, side channel, partial curve] |  |
